Measurements from paper PMC12136788.
The list shows a part of the results.

T1: UNK ZnF1-3 (human, UniProt Q9C0B0 31-174)
T1 sequence: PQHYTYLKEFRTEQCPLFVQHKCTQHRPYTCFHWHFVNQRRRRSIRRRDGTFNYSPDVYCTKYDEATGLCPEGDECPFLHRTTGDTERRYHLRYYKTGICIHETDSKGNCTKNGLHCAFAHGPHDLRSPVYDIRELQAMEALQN

B1: chr2:175006660:175006661:-_ENSG00000138430_ENST00000344357|hu_mus|FALSE|FALSE (ssRNA)
RNA: GGGAGUUCUACAGUCCGACGAUCUAGAAUGGGCCCAAUCAUCUCCUCGUCCUUCAGCUGGAGCUCCUCGUGAAUUAUCUCUAUGUCUCGGAUGGGAUCUACACUUCCUUCAACAUGCGUGAUAUCAUCGUCUUCAAAAGCACGCAACAGAGGAUUGAGCAUCA
B2: chr3:197678047:197678048:+_ENSG00000182899_ENST00000448864|hu_mus|FALSE|FALSE (ssRNA)
RNA: GGGAGUUCUACAGUCCGACGAUCUUAAGAAGAGCCGUGUGCUCUCUUUGGUUCCGGAGACCUCGCUUGUAGCCAGCAAAAAUGGCCUUGCACCACAGCCUUCCAGACAUACUUGCUGUUAGAAGUCCUGUUCCCAGCAGGCCUCAACAGAGGAUUGAGCAUCA
B3: chr3:103546164:103546165:-_ENSMUSG00000008730_ENSMUST00000118317|mus_mus|FALSE|FALSE (ssRNA)
RNA: GGGAGUUCUACAGUCCGACGAUCUGAGAACUGAGCUGAAGAUCCAAAAUGGAACGGGACAGAGGUGGCAGUUAAGGAGGAAAGCUGCGGCUUUGACUUGUCACUGUCGGUAGGGAGACUGAGAACACGAACGCAUUUACACAACAACAGAGGAUUGAGCAUCA
B4: chrX:71549400:71549401:+_ENSMUSG00000019087_ENSMUST00000019231|mus_hu|mus_mus_mus_hu_False|1_68 (ssRNA)
RNA: GGGAGUUCUACAGUCCGACGAUCGCAGUAGGAAGAGGGAAGCUCUUCAGUCCAGUGCGCUGCAGGGAGAAACAUGAACAACACGGACACCGUCCCACCCUCAACCCCCCCACUGGCACAGGGUCACACAAUCUGGGAAGUGAUCAACAGAGGAUUGAGCAUCA
B5: chr4:81936313:81936314:-_ENSMUSG00000008575_ENSMUST00000064770|mus_mus|FALSE|FALSE (ssRNA)
RNA: GGGAGUUCUACAGUCCGACGAUCCCCACAAAAAGUACACAAAGAACAUUAUCCUCCAACCGGGCACAAUAAAACCUUCACUAACAUUCCGGCCCAGUCUGGGGCCUAUCCCAGAGGCCCGAACUCCAGAAAUUAAGUAAGUAACAACAGAGGAUUGAGCAUCA
B6: chr1:46159212:46159213:+_ENSG00000159596_ENST00000372025|hu_mus|hu_hu_hu_mus_True|68_88 (ssRNA)
RNA: GGGAGUUCUACAGUCCGACGAUCUCUGAUCCCUCCCAAGAAAGCUAGGAAACUGGCUCCAUAAGCCAUCUGAGUAAAAGCUAGGACGGGGAUAUAAGACUUUGUUAUUACCAUGAGAAGUGGGGGAGCAGUAAAGGGGAUUAACAACAGAGGAUUGAGCAUCA
B7: chr4:151706827:151706828:+_ENSMUSG00000028936_ENSMUST00000139685|mus_hu|FALSE|FALSE (ssRNA)
RNA: GGGAGUUCUACAGUCCGACGAUCUUUGUAUCCCUGAAUCAUUGAGAAAAGCAACAGAUACAACUGACAGUCACACUUUUUAAAAUCAAACAGUCACUACCUUCAGCCCACACCUCCACACCCGCAUCUGCCUCCCCAAUGGCUCAACAGAGGAUUGAGCAUCA
B8: chr11:4127340:4127341:+_ENSG00000167325_ENST00000300738|hu_mus|hu_hu_hu_mus_False|38_38 (ssRNA)
RNA: GGGAGUUCUACAGUCCGACGAUCGGCAUAGUCAGGGUGCUUCGUGGUCAAGGUCGCGGCUGUCUCAGCAGCCAGGGUGUCCAGUUCCACUGUGGUGACCCCACUGUAUAGGCCUUGGAUUACUUUCAUGGUGAUCUGAGCAGGCAACAGAGGAUUGAGCAUCA
B9: chrX:149583016:149583017:+_ENSMUSG00000041658_ENSMUST00000039720|mus_mus|FALSE|FALSE (ssRNA)
RNA: GGGAGUUCUACAGUCCGACGAUCAUUUCCAACAGAGUCUACGAGAGAGUAGGUGCUCAAACUGCUAUUAAUUUGAAGACUAUGUAUACGGUCUAGUAUUGUUGCACCAAGACGACGUGUGUCUCUGGCAAUAUAAUUUGCAAACAACAGAGGAUUGAGCAUCA
B10: 88753997_88754117_279_5pUTR_ENSMUSG00000068921_ENSMUST00000090938|mouse|control|control (ssRNA)
RNA: GGGAGUUCUACAGUCCGACGAUCCGUCGCGGUGGCCCGUCCCAGGAGGUCCGCGCCUAGGUACCUUCGCUCGCUCUUCAAAACAUUCCGGUCACCGUGGCCAGCCUCGUCUGCGCGGGCGUGCCCGCUUCUCCCCGGCCCCAGCAACAGAGGAUUGAGCAUCA
B11: 8245625_8248290_788_3pUTR_ENSG00000089818_ENST00000339754|human|control|control (ssRNA)
RNA: GGGAGUUCUACAGUCCGACGAUCGUGCUGAAGUCUCCCCACAAGUCAUUGCUUACAGAAACUGGAGUUGGUGCUGGUGUCGUGACAGGAGCAGGAGAAUCCAAAUCUAAAAGGAUAUCUGCAUCACUGCCUCCAUGGUUAGAUCAACAGAGGAUUGAGCAUCA
B12: chr9:53391639:53391640:-_ENSMUSG00000032047_ENSMUST00000034547|mus_hu|FALSE|FALSE (ssRNA)
RNA: GGGAGUUCUACAGUCCGACGAUCCACUUUUUGGGGAUCAAUCUCCAACAUUUUAAUGUUUGCUAGUACAACCAGACUAAAGGCUUCAUUUACUUCCCACAUUGCAAUAUCUUCUUUUUUCAAUCCCACAUCUUUAAGAACCAUCAACAGAGGAUUGAGCAUCA
B13: chr7:75932113:75932114:+_ENSG00000106211_ENST00000248553|hu_hu|hu_hu_hu_mus_False|28_38 (ssRNA)
RNA: GGGAGUUCUACAGUCCGACGAUCCUGCGACCACUCAUCGGGCAACCGGGGCACCCCGAAAGCUUGAUCGAAGAGGCGGCUGUGUGCAGGGUACCAGCGGAAGGGGUCCCAGCUGGGCGGGCUCCGCAGCAGCGAGAAGGGCACCAACAGAGGAUUGAGCAUCA
B14: chr1:66480114:66480115:+_ENSMUSG00000015222_ENSMUST00000024639|mus_hu|mus_mus_mus_hu_True|1_1 (ssRNA)
RNA: GGGAGUUCUACAGUCCGACGAUCUGGCCUGUGGCGGAUGUUCUUCAGAGAGCCACAUUUGGAUGUCACAUGGCUUAGGUCUAUUUUCUUGGUAACAAUUUGUACCUGCCCCCCUUUAGGCUGGUAUUUGAUGUUGUCAGUUGACAACAGAGGAUUGAGCAUCA

What follows are binders tested against T1, UNK ZnF1-3 (assay: nsRBNS (natural sequence RNA bind-n-seq); RBNS binding buffer (assumed for nsRBNS): 25 mM Tris pH 7.5, 150 mM KCl, 3 mM MgCl2, 0.01% Triton X-100, 500 ug/ml BSA, 20 U/ml SUPERase-In, 4 C; UNK is unkempt and MSI1 is Musashi-1; names of the RNAs are library labels; protein concentration not given here; high values mean tight binding).

Row | Binder | binding signal
1 | B1 | 0.801 enrichment R
2 | B2 | 0.657 enrichment R
3 | B3 | 1.23 enrichment R
4 | B4 | 1.57 enrichment R
5 | B5 | 1.6 enrichment R
6 | B6 | 1.48 enrichment R
7 | B7 | 1.91 enrichment R
8 | B8 | 0.973 enrichment R
9 | B9 | 0.764 enrichment R
10 | B10 | 0.597 enrichment R
11 | B11 | 1.09 enrichment R
12 | B12 | 0.735 enrichment R
13 | B13 | 1.26 enrichment R
14 | B14 | 0.501 enrichment R
